In patent publication US9274101B2 (BIOLOG, Inc., priority 2001, dated 2016):

Test system: E. coli 287 (ATCC #11775)
Test: Carbon source utilization in GN / SF-N MICROPLATE with redox purple, tetrazolium violet or resazurin
[1] = redox purple, 0.85% NaCl suspension
[2] = the remaining results (all indicator/suspension combinations except redox purple in 0.85% NaCl)
[3] = resazurin, 0.2% carrageenan suspension
[4] = resazurin, 0.85% NaCl suspension
[5] = tetrazolium violet and resazurin, both suspensions
[6] = tetrazolium violet, 0.2% carrageenan suspension
[7] = tetrazolium violet, 0.85% NaCl suspension

Compound: CCC(O)C(=O)O (stereo not drawn) [α-hydroxy butyric acid]
- carbon source utilization result [1]: negative
- carbon source utilization result [2]: positive

Compound: CC(O)C(C)O (stereo not shown) [2,3-butanediol]
- carbon source utilization result [3]: positive/negative
- carbon source utilization result [4]: negative

Compound: NCCO [2-amino ethanol]
- carbon source utilization result [3]: positive/negative
- carbon source utilization result [4]: negative

Compound: O=C(CO)[C@H](O)[C@H](O)[C@H](O)CO [D-psicose]
- carbon source utilization result (redox purple, […]): negative
- carbon source utilization result [5]: positive

Compound: OC[C@H]1O[C@@](CO)(O[C@H]2O[C@H](CO)[C@@H](O)[C@H](O)[C@H]2O)[C@@H](O)[C@@H]1O [Sucrose]
- carbon source utilization result [3]: positive
- carbon source utilization result [4]: negative

Compound: N[C@@H](CCC(=O)O)C(=O)O [L-glutamic acid]
- carbon source utilization result [1]: negative

Compound: NCCC[C@H](N)C(=O)O [L-ornithine]
- carbon source utilization result [3]: positive
- carbon source utilization result [4]: negative

Compound: C[C@@H](O)[C@H](N)C(=O)O [L-threonine]
- carbon source utilization result (redox purple, 0.2% carrageenan suspension): equivocal (±)
- carbon source utilization result [1]: negative
- carbon source utilization result [3]: positive
- carbon source utilization result [4]: positive
- carbon source utilization result [6]: equivocal (±)
- carbon source utilization result [7]: positive

Compound: NCCc1ccccc1 [Phenylethyl amine]
- carbon source utilization result [3]: positive/negative
- carbon source utilization result [4]: negative

Compound: glycogen
- carbon source utilization result (redox purple, […]): negative
- carbon source utilization result [5]: positive

Compound: O=C(CO)[C@@H](O[C@H]1O[C@H](CO)[C@@H](O)[C@H](O)[C@H]1O)[C@H](O)[C@H](O)CO [turanose]
- carbon source utilization result (redox purple, […]): negative
- carbon source utilization result [3]: positive
- carbon source utilization result [4]: equivocal (±)
- carbon source utilization result (tetrazolium violet, both suspensions): equivocal (±)

Compound: O[C@H]1[C@H](O)[C@@H](O)[C@H](O)[C@@H](O)[C@H]1O [M-inositol]
- carbon source utilization result [3]: positive/negative
- carbon source utilization result [4]: negative

Compound: OC[C@H]1O[C@H](OC[C@H]2O[C@H](O[C@]3(CO)O[C@H](CO)[C@@H](O)[C@@H]3O)[C@H](O)[C@@H](O)[C@@H]2O)[C@H](O)[C@@H](O)[C@H]1O [D-raffinose]
- carbon source utilization result [1]: negative
- carbon source utilization result [2]: positive

Compound: OC[C@H]1O[C@@H](O[C@@H]2[C@@H](CO)OC(O)(CO)[C@H]2O)[C@H](O)[C@@H](O)[C@H]1O (mixture of isomers) [Lactulose]
- carbon source utilization result [1]: negative
- carbon source utilization result [2]: positive

Compound: N[C@@H](Cc1ccccc1)C(=O)O [L-phenylalanine]
- carbon source utilization result [3]: positive/negative
- carbon source utilization result [4]: negative

Compound: NC(=O)[C@@H](O)[C@@H](O)[C@H](O)[C@@H](O)C=O [Glucuronamide]
- carbon source utilization result (redox purple, […]): negative
- carbon source utilization result [5]: positive

Compound: O=C(O)[C@@H](O)[C@@H](O)[C@H](O)[C@@H](O)C(=O)O [D-saccharic acid]
- carbon source utilization result (redox purple, […]): negative
- carbon source utilization result [3]: positive
- carbon source utilization result [4]: negative
- carbon source utilization result [6]: negative
- carbon source utilization result [7]: equivocal (±)

Compound: O=C1CC[C@@H](C(=O)O)N1 [L-pyroglutamic acid]
- carbon source utilization result [3]: positive/negative
- carbon source utilization result [4]: negative

Compound: NC(=O)CCC(=O)O [succinamic acid]
- carbon source utilization result (redox purple, […]): negative
- carbon source utilization result [5]: positive
